Reference: PMC12040169 (PLOS Biology, 2025)
Some of the results follow.

Tested on: T1, C. trachomatis L2/434/Bu expressing GFP (CTL2-GFP)
T1 construct: L2/434/Bu GFP intracellular growth in HeLa cells
Parameters: species or system HeLa; C. trachomatis total inclusion area by high-content imaging, normalised to DMSO
Conditions: total inclusion area; 28.5 h, 10 µM; inhibitor
Procedure, shortened: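 Post-fluorescence-read fixation, DNA staining with Hoechst and high-content imaging; GFP inclusion area and number per well, and nuclei counts, used as proxies for bacterial growth and host viability.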

| Compound | % of control remaining |
| --- | --- |
| COc1ccc(OCCCCCN2CCC3(CC2)OCCc2c3[nH]c3ccccc23)cc1 [CBK113517T] | 0.5251 |
| O=C(Cc1c[nH]c2ccccc12)N1CCCC1c1cccc(Cc2ccccc2F)n1 (stereo not shown) [CBK285799] | 95.2858 |
| CC(C)CC1(C(CN2C(=O)c3ccccc3C2=O)C(=O)NO)CCN(CCc2ccccc2)C1=O (stereo not shown) [CBK013029] | 50.2609 |
| O=C(c1ccccc1)c1ccc(CNC(=O)C2(c3ccccc3)CCCC2)cc1 [CBK161526] | 80.7284 |
| COc1ccc2oc(C(=O)NC(C)(C)CN3CCCCC3)cc2c1 [CBK282053] | 108.209 |
| CC(C)Nc1nccnc1OCCN1CCOCC1 [CBK113410] | 73.6891 |
| CCOC(=O)N1CCN(C(=O)c2oc3ccccc3c2C)CC1 [CBK023696] | 64.2632 |
| CCCC1CCN(CC2C=Cc3cc(-c4ccc(S(C)(=O)=O)cc4)ccc3O2)CC1 (stereo not shown) [CBK158647] | 99.9196 |
| Clc1ccc(COc2nccnc2N2CCN(CCOc3ccccc3)CC2)cc1Cl [CBK083091T] | 63.6281 |
| Cc1ccc(-n2nnnc2SCC(=O)O)cc1 [CBK287048] | 92.7375 |
| COc1cccc(CN2CCN(Cc3ccco3)[C@@H](C)C2)c1 [CBK284265] | 51.4716 |
| CC(C)NC(=O)N[C@H]1CC[C@]2(CC1)CC(=O)c1ccccc1O2 [CBK283389] | 83.544 |
| COc1ccc(NC(=O)c2cc([N+](=O)[O-])ccc2N2CCN(C)CC2)cc1 [CBK263017] | 78.0393 |
| CC1CCCC(C)N1C(=O)Cn1cnc2c(Cl)cc(Cl)cc2c1=O (stereo not shown) [CBK306222] | 92.6958 |
| O=C(CCS(=O)(=O)c1ccccc1)N(Cc1cccnc1)c1nc2c(F)cccc2s1 [CBK294422] | 92.0574 |
| CNC(=O)c1ccc(-c2cccc(COC)c2)nc1NCC1CC1 [CBK106322] | 121.267 |
| Cc1ccc2cc(C3CC(c4ccccc4)=NN3C(=O)CCC(=O)O)c(=O)[nH]c2c1 (stereo not shown) [CBK296127] | 100.805 |
| CCC(=O)N[C@H]1CC[C@]2(CC1)CNC(=O)c1ccccc1O2 [CBK281681] | 55.6673 |
| CCCNC(=O)CN(C)Cc1cn2cccc(C)c2n1 [CBK304800] | 105.374 |
| CCOc1ccc(-c2csc(NC(=O)c3cccnc3)n2)cc1 [CBK094747] | 82.087 |
| Fc1ccc([C@@H]2CN(Cc3ccccn3)C[C@H]2c2cc[nH]n2)cc1 [CBK285416] | 75.0816 |
| O=C(O)CCc1ccc(-c2ccc(Br)cc2)n1-c1ccccc1O [CBK131892] | 83.5849 |
| CC(C)CNC(=O)N(CCc1ccccc1)Cc1ccccc1 [CBK155339] | 114.298 |
| Cc1cc(Nc2ccccc2C)c2cc(C(=O)O)ccc2n1 [CBK269458C] | 89.9431 |
| Cc1[nH]nc(Nc2ccc(C(=O)O)cc2)c1[N+](=O)[O-] [CBK262726] | 104.993 |
| COCCn1cnnc1C(C)NC(=O)N(C)Cc1nc2ccccc2s1 (stereo not shown) [CBK307427] | 68.0855 |

| Compound | % of control remaining |
| --- | --- |
| COC(=O)c1cc(CN2CCCN(S(=O)(=O)c3ccc(-n4cnc(Cl)c4Cl)cc3)CC2)cn1C [CBK063080] | 18.8957 |
| N#Cc1ccc(COc2cccc(C(F)(F)F)c2)cc1 [CBK002811] | 56.665 |
| Cc1nn(CC(=O)NC2CCC2)c(=O)c2cc3sccc3n12 [CBK284110] | 82.6465 |
| CC(C)CNc1nc2c(ncn2[C@H]2C[C@@H](O)[C@@H](CO)O2)c(=O)[nH]1 [CBK201198] | 121.696 |
| COc1ccc(C(=O)NCc2ccccc2)c(OC)n1 [CBK200190] | 111.865 |
| CCOC(=O)Cn1ccc2ccnc(-c3cccc(OC)c3)c21 [CBK284707] | 70.2517 |
| Cc1ocnc1C(=O)Nc1nc2c(cc1C#N)CCC2 [CBK306365] | 71.6023 |
| NC1CCN(c2ncccn2)CC1 [CBK174054] | 100.638 |
| O=C(CN1CCCCC1CN1CCOCC1)NCc1ccccn1 (stereo not shown) [CBK304375] | 77.4619 |
| O=C(NC1CC1)[C@@H]1C=CCN1C(=O)Nc1ccccc1C(F)(F)F [CBK284276] | 74.2303 |
| Nc1ncc(-c2cccc(O)c2)nc1N1CCOCC1 [CBK063376] | 84.8496 |
| c1csc(N2CCN(c3nccn4cnnc34)CC2)n1 [CBK305185] | 93.2117 |
| NC(=O)CN1CCCC2(CCCCc3ccccc3OCC(=O)NC2)C1 (stereo not shown) [CBK292058] | 84.7897 |
| c1cncc(-c2nnc(SCc3nc4ccccc4[nH]3)o2)c1 [CBK264543] | 105.492 |
| Cc1cnc2[nH]c(C(F)(F)F)c(CN3CCSCC3)c2c1 [CBK284767] | 101.821 |
| CN(C)CCN1CCN(c2nc(-c3cccnc3)cnc2N)CC1 [CBK063503] | 135.966 |
| O=[N+]([O-])c1ccc(/C=N/Nc2nnc3c(n2)[nH]c2ccccc23)cc1 [CBK261486] | 105.106 |
| O=C(c1ccc(Br)o1)N1CCc2ccc(S(=O)(=O)N3CCOCC3)cc21 [CBK028953] | 71.2244 |
| O=c1cc(-c2cccc([N+](=O)[O-])c2)c2ccc(OCc3cc4c(cc3Cl)OCO4)cc2o1 [CBK265652] | 75.9573 |
| O=C(Nc1ccnn1Cc1cc(Br)cs1)c1ccc2ncsc2c1 [CBK296713] | 108.013 |
| Cc1cccnc1CN1CCC2(CCc3ccccc3C(=O)N2)C1 (stereo not shown) [CBK284611] | 87.5275 |
| c1ccc2c(Sc3cnccn3)cccc2c1 [CBK085841] | 105.229 |
| CCCOCCN1CCN(C(=O)c2nn3cc(C)cnc3c2Cl)CC1 [CBK306690] | 50.1326 |
| CCCCCNC(=O)N1CCN(CCCC(c2ccc(F)cc2)c2ccc(F)cc2)CC1 [CBK024917C] | 89.164 |
| CC(C#CCN(C)C)N1C(=O)CCC1C (stereo not shown) [CBK008291G] | 93.0529 |
| CCOC(=O)c1sc(NS(=O)(=O)Cc2ccccc2)nc1C [CBK047448] | 71.4578 |
